The entries are a selection whose mix differs from that of the whole data set. The list includes weakly bound sequences.
Columns and labels:
Assay in all cases: protein-binding microarray (PBM)
Conditions in all cases: PBM: ~300 nM protein, 6 mM HEPES pH 7.8, 80 mM KCl, 0.5 mM EDTA, 0.5 mM EGTA, 6% glycerol, 35 ng/ul poly-dIdC, 1% milk, 1 h, room temperature; Ap Aiptasia and Nv Nematostella (sea anemones) / Co Capsaspora / Aq Amphimedon (sponge) / Dm Drosophila / Hu human; RHD is the Rel homology domain; high values mean tight binding; most listed sequences are background and not binding sites; double strand, one strand shown
[1] = molecular target: T1, GST-Ap-NF-kB RHD (UniProt A0A913YAJ5)
T1 sequence: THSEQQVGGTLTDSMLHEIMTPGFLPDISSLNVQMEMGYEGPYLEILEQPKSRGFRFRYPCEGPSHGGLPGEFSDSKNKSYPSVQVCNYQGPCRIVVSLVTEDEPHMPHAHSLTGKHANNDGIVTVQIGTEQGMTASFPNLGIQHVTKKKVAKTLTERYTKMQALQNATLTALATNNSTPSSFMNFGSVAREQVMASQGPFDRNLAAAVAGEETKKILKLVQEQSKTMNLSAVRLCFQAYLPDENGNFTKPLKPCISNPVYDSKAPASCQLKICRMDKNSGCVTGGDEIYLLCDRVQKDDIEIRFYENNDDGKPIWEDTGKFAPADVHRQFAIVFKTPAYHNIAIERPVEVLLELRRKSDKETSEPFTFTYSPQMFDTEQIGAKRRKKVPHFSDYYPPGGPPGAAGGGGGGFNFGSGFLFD

[2] = molecular target: T2, GST-Nv-NF-kB (Cys allele) (UniProt E5G601)
T2 sequence: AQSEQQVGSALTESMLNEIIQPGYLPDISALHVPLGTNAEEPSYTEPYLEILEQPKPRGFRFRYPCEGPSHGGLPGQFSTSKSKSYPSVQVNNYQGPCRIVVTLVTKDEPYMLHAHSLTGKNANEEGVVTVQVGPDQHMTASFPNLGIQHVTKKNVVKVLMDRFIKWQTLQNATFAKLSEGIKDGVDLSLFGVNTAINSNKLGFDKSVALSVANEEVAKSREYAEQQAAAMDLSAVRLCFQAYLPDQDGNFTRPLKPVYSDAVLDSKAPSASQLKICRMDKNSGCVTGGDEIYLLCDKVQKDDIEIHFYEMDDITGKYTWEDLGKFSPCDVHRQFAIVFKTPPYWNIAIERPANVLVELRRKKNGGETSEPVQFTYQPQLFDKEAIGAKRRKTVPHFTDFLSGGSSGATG

[3] = molecular target: T3, GST-Co-NF-kB (UniProt F1ARL5)
T3 sequence: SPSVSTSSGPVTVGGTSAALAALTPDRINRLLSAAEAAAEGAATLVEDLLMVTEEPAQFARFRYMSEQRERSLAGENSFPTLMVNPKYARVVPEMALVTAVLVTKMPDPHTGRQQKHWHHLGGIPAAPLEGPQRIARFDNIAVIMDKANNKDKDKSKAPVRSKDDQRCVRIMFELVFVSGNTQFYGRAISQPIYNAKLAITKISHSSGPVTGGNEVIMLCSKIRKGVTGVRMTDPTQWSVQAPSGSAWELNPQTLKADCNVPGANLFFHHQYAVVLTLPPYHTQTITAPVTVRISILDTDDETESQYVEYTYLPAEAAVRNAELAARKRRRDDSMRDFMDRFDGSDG

[4] = molecular target: T4, GST-Dm-Relish (UniProt Q94527)
T4 sequence: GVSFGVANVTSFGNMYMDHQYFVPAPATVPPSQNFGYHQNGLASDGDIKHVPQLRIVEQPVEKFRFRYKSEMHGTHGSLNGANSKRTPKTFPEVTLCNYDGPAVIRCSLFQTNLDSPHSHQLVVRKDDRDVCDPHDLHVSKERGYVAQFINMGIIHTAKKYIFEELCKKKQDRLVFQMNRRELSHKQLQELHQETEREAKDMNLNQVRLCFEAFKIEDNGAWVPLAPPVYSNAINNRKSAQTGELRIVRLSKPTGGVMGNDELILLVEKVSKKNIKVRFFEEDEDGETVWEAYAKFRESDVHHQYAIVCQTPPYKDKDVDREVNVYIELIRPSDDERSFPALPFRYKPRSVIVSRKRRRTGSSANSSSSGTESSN

[5] = molecular target: T5, GST-Aq-NF-kB (UniProt A9Y5G7)
T5 sequence: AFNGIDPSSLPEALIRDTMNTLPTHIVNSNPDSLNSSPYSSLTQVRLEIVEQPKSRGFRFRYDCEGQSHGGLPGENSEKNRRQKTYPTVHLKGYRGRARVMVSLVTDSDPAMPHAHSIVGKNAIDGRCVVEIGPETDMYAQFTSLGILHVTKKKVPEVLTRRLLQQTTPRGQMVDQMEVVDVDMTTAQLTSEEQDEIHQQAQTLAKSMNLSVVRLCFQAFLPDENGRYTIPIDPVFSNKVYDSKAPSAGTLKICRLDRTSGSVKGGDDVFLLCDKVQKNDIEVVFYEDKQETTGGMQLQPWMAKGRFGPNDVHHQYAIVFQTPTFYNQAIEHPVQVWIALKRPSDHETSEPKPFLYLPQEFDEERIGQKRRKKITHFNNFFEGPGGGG

Sequence | binding signal [1] | binding signal [2] | binding signal [3] | binding signal [4] | binding signal [5]
CCGATTAACATCATTCGCATTTTTGATGTTAATCGGGTCTTGATTCGCTTGACGCTGCTG | -0.0705 z-score | -0.415 z-score | -0.183 z-score | 0.446 z-score | -0.299 z-score
CCGATTAACATCATGCCAATAGTTGATGTTAATCGGGTCTTGATTCGCTTGACGCTGCTG | -0.363 z-score | 0.139 z-score | -0.152 z-score | -0.456 z-score | -0.11 z-score
CCGATTAACATCAAATTTCCAATTGATGTTAATCGGGTCTTGATTCGCTTGACGCTGCTG | -0.896 z-score | -0.0162 z-score | -0.578 z-score | 0.339 z-score | 0.166 z-score
CCGATTAACATCATGATTGTTTATGATGTTAATCGGGTCTTGATTCGCTTGACGCTGCTG | -0.516 z-score | 0.186 z-score | -0.512 z-score | -0.651 z-score | -0.191 z-score
CCGATTAACATCAAGGCGTATCGTGATGTTAATCGGGTCTTGATTCGCTTGACGCTGCTG | -0.203 z-score | -0.164 z-score | 0.00464 z-score | -0.399 z-score | -0.0905 z-score
CCGATTAACATCATGGACTGCTTTGATGTTAATCGGGTCTTGATTCGCTTGACGCTGCTG | -0.344 z-score | -0.28 z-score | -0.149 z-score | -0.581 z-score | -0.466 z-score
CCGATTAACATCATAGCTAGGCTTGATGTTAATCGGGTCTTGATTCGCTTGACGCTGCTG | -1.05 z-score | -1.08 z-score | -0.952 z-score | -1.19 z-score | -0.666 z-score
CCGATTAACATCAAGTCTGCGATTGATGTTAATCGGGTCTTGATTCGCTTGACGCTGCTG | -1.41 z-score | -0.277 z-score | -1.4 z-score | -0.881 z-score | -0.775 z-score
CCGATTAACATCATAATGCGCAATGATGTTAATCGGGTCTTGATTCGCTTGACGCTGCTG | -0.234 z-score | 0.286 z-score | -1.23 z-score | -0.505 z-score | -0.294 z-score

Source: paper PMC5700166
